Test results published in PubChem BioAssay AID504884 (Broad Institute, 2011).
In all, about 360,000 compounds went through this assay and about 230 (0.064%) were called active. Inconclusive means that the source gave no clear call. Such entries were picked first, then a sample of the others. Rule as the data show it: active = activity above about 50% (passing the limit was not always enough); inconclusive = no clear call, values can overlap the other calls.

system: DNA topoisomerase I (Yersinia pestis CO92); test: Yersinia pestis topoisomerase I inhibitors, primary screen, biochemical, cleavage product accumulation, plate reader, single point (AID 504884); details: Y. pestis Topo-I cleavage product accumulation, at 10 µM, stronger effect = higher value

| Compound | activity |
| --- | --- |
| CCOC(=O)c1ccc(S(=O)(=O)N2CCN(C3CCCC3)CC2)cc1 | inconclusive: 82.3% |
| CCC(=NCCC(c1ccccc1)c1ccccc1)c1c(O)[nH]c(=O)[nH]c1=O | active: 66.1% |
| O=c1c([N+](=O)[O-])cccn1Cc1ccccc1Cl | inactive: -14.8% |
| CCc1cc(C(=O)N2CCc3c([nH]c4ccccc34)C2c2ccc(OC)cc2F)no1 (configuration not stated) | inconclusive: 182% |
| Cc1ccccc1-c1noc(-c2ccc(Cl)cc2)n1 | inactive: 0.056% |
| CCOC(=O)C1CCN(C(=O)COc2ccc(N(C)S(=O)(=O)c3ccc(C)cc3)cc2)CC1 | inconclusive: 77.2% |
| CCCCCCC1CCC(C(=O)N2CCOCC2)CC1 (configuration not stated) | inconclusive: 54.7% |
| O=C(N/C(=C/c1ccco1)C(=O)N1CCCCCC1)c1cccs1 | inconclusive: 50.4% |
| O=C(NCc1ccc2c(c1)OCO2)c1ccc(CSCc2ccccc2Cl)o1 | inconclusive: 55.8% |
| Clc1ccc(OCCSc2nnnn2C2CCCCC2)cc1 | inconclusive: 51.1% |
| CCC1CCC(C(=O)NC(C(=O)NCCc2ccc(S(N)(=O)=O)cc2)C(C)C)CC1 (configuration not stated) | inconclusive: 51.6% |
| Clc1ccc(COn2c(-c3ccccc3)nc3ccccc32)cc1 | active: 58.9% |
| CCOc1ccc(-c2c(C(=O)N/N=C/c3ccc(C)s3)nnn2-c2nonc2N)cc1 | inconclusive: 50.3% |
| OC(CCCN1CCCCC1)(c1ccccc1)c1ccccc1 | inactive: 4.99% |
| Nc1nnc(/C=C/c2ccccc2Cl)s1 | inactive: -0.116% |
| Cc1ccc(-c2nnc3n2N=C(c2ccccc2Br)CS3)cc1 | active: 58.8% |
| O=C(CCCCC(=O)Sc1ccccc1)Sc1ccccc1 | inconclusive: 50.5% |
| Cc1ccc(NC2(C(N)=O)CCCC2)cc1 | inactive: 1.14% |
| CCCn1nnnc1SCC(=O)NCc1ccccc1 | inconclusive: 105% |

| Compound | activity |
| --- | --- |
| CC1CCc2nc(NC(=O)Cc3cccs3)sc2C1 (configuration not stated) | inactive: -0.042% |
| Cc1ccc(S(=O)(=O)N(C)c2ccc(C(=O)N3CCc4ccccc4C3)cc2)cc1 | inconclusive: 52.3% |
| COc1ccc(NC(=O)Nc2cccc3c2O[C@H](CN(C)C(=O)NC(C)C)[C@@H](C)CN([C@H](C)CO)C3=O)cc1 | inconclusive: 61.8% |
| CCOc1ccc2nc(N(CCCN(C)C)C(=O)c3ccc4c(c3)CCCC4)sc2c1 | inconclusive: 50.7% |
| CCCCOC(=O)Nc1nnc(/C=C/c2ccc(OC)cc2)s1 | active: 53.3% |
| COc1ccc(CCNC(=O)c2cc(COc3c(F)cccc3F)on2)c(OC)c1 | inconclusive: 51.4% |
| COc1ccc(-c2sc3ccc(N4CCOCC4)cc3c2C#CC(C)(C)O)cc1 | inactive: -1.04% |
| Cc1ccccc1OCC(=O)Nc1ccccc1N1CCCCC1 | active: 54.8% |
| Cc1cc(N2C(=O)C(O)=C(C(=O)c3ccco3)C2c2ccc(Cl)cc2)no1 (configuration not stated) | inactive: 8.09% |
| CC(OC(=O)Cn1[nH]c(=O)c2ccccc2c1=O)C(=O)Nc1cccc(Cl)c1 (configuration not stated) | inconclusive: 60.5% |
| Cc1cc(NC(=O)CSc2nnc(-c3c[nH]c4ccccc34)n2-c2ccc(Cl)cc2)no1 | inconclusive: 53.4% |
| Cc1cc2oc(=O)cc(CN(C)Cc3cccc(F)c3)c2cc1Cl | inconclusive: 55% |
| Cn1nc(N)c2c(-c3ccc(Cl)cc3)c(C#N)c(N)nc21 | inactive: -8.35% |
| O=C(O)CCN1C(=O)C2CCCCC2C1=O (configuration not stated) | inactive: 4.01% |
| O=C(Nc1ccc2c(c1)oc1ccccc12)c1ccncc1 | inconclusive: 63.1% |
| OCCC1CN(Cc2cccn2-c2nccs2)CCN1Cc1ccccc1 (configuration not stated) | inconclusive: 62.9% |
| CCCCn1c(=O)[nH]c(=O)c2c1nc(-c1ccsc1)n2Cc1ccccc1 | active: 59% |
| COc1cccc(COC(=O)C2CCN(S(=O)(=O)c3ccc(C)cc3C)CC2)c1OC | inconclusive: 54.5% |
| CN(Cc1ccon1)C(=O)CC1C(=O)NCCN1Cc1cccc(Oc2ccccc2)c1 (configuration not stated) | inconclusive: 75.1% |

| Compound | activity |
| --- | --- |
| Cc1cc2oc(C(=O)NCc3ccc4c(c3)OCO4)c(C)c2cc1C | inconclusive: 50.1% |
| CC(=O)c1ccc(-c2cccs2)s1 | inactive: 2.06% |
| Cc1ccc(C(=O)C(C)OC(=O)C2CCN(c3ccc(C(F)(F)F)cn3)CC2)cc1 (configuration not stated) | active: 55% |
| CCCCNc1c(-c2cccc(-c3cc(C(C)=O)cs3)c2)nc2ccc(C)cn12 | inactive: 23.7% |
| COC(=O)c1ccc(Cn2cnc3c(sc4nc(N5CCOCC5)c5c(c43)CCCC5)c2=O)o1 | active: 52% |
| COc1ccc(CNC(=O)[C@]2(C)CCC[C@@]3(C)C4CC[C@@]5(C)C[C@]4(CCC32)CC5=O)cc1 (some centres not stated) | inconclusive: 58.4% |
| COc1ccc(OCc2cc(C(=O)NC(C)c3cnn(C)c3)no2)c(Cl)c1 (configuration not stated) | inactive: 18.6% |
| Cc1cccc(/C=C(\c2nc3ccccc3[nH]2)S(=O)(=O)c2ccccc2)c1 | inactive: -1.49% |
| Cc1ccc(C(=O)OCc2ccc3c(c2)OCO3)cc1S(=O)(=O)N1CCCCC1 | inconclusive: 52.5% |
| C/C(=N\NC(=O)c1ccc(O)cc1)c1cccc(NC(=O)c2ccc(Cl)cc2)c1 | inactive: 6.39% |
| CC(C)(C)NC(=O)COC(=O)c1ccc(NC(=O)CC#N)cc1 | inactive: -13.8% |
| Cc1cc(=O)oc2cc(OCC(=O)NCCc3c[nH]c4ccc(F)cc34)ccc12 | inconclusive: 53.9% |
| Cc1ccc(S(=O)(=O)NCCC(=O)N2CC(C)OC(C)C2)cc1 (configuration not stated) | inactive: 4.96% |
| FC(F)(F)c1cccc(CON=C2CCN(c3ncc(C(F)(F)F)cc3Cl)CC2)c1 | inconclusive: 51% |
| Cc1ccc(S(=O)(=O)N2CCOC23CCN(C(=O)c2ccc(Cl)cc2Cl)CC3)cc1 | inconclusive: 60.1% |
| CC(C)CN1CCC(=O)N([C@H](COc2ccccc2)Cc2ccccc2)CC1 | inconclusive: 93.7% |
| COc1cccc(/C=C/C(=O)OCC(=O)c2ccc(C)c(C)c2)c1OC | inconclusive: 50.4% |
| CCOC(=O)c1cc(-c2ccccc2)nn1CC1CC(c2ccc(Cl)cc2)=NO1 (configuration not stated) | inconclusive: 53.7% |
| Cc1cc(C)nc(NNC2=CC(=[N+]3CCCCC3)CC(C)(C)C2)n1 | inconclusive: 85% |
